The labels stand for the following.
B1: CPEB3 Ribozyme (parent)
chain: UAACAGGGGGCCACAGCAGAAGCGUUCACGUCGCAGCCCCUGUCAGAUUCUGGUGAAUCUGCGAAUUCUGCUGUAUAUCUC

The source gives no read counts; variants with many changes may rest on few reads.

Drawing on the RNAGym collection of RNA variant scans (doi:10.1093/nar/gkz1192), this text covers self-cleavage for 34 variants.

Variants of B1 are the subject of this series. The experiment in a line: self-cleavage, relative activity (ratio to wild type); higher = more cleavage; in vitro, sequencing. Summed up:
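Barcoded CPEB3 ribozyme mutants, produced by rounds of error-prone PCR, self-cleaved while being transcribed with T7 RNA polymerase for 5 hours at 37°C and during a subsequent 15 min DNase I step before EDTA was added. Sequencing of template-switched cDNA on Illumina gave cleaved and total reads, and DNA sequencing assigned barcodes to variants. Each variant's relative activity is its cleaved/total read fraction divided by the unmutated ribozyme's fraction, averaged across three batches. A variant needed a minimum of 5 reads.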
For UAACAGGGGGCCCCAGCAGAAGUGUUCACGUCGCAGCCCCUGUCAGAUUCUGGCGAAUCUGCGAAUUCUGCAGCAUAUCUC [A13C C23U U54C U72A U74C], the self-cleavage amounted to 0.09.

For the variant UAACAGGGGGCCCCAGCAGAGGGGCUCACAUCGCAGCCCCUGUCAGAUUCUGGUGAAUCUGCGAAUUCUGCUGUAUAUCUC [A13C A21G C23G U25C G30A], the self-cleavage was determined as 0.15.

For the variant UAACAGGGGGCCCCAGCAGAGGCGUUCACGUCGCAGCCCCAGUCAGAUUCUGGUGAAUCUGCGAGUUCUGCUGUAUAUCAC [A13C A21G U41A A65G U80A], the self-cleavage turned out to be 0.04.

Turning to UAACAGGGGGCCCCAGCAGAAGCGUUCCCGUCGCAGCCCCUGUCAGAUUCUGGUGAACCUGCGAAUUCUGCUGUAUAUCUC [A13C A28C U58C], the self-cleavage was 0.27.

As for UAACAGGGGGCCCCAGCAGAGGCGACCACGUCGCAGCCCCUGUCAGAUUCUGGUGAAUCCGCGAAUUCUGCUGUAUAUCUC [A13C A21G U25A U26C U60C], the self-cleavage turned out to be 0.1.

Consider UAACAGGGGGCCCCAGGAGGAGCGUCCACGUCGCAGCCCCUGUCAGAUCCUGGUGAGCCUGCGAAUUCUGCUGUAUAUCUC [A13C C17G A20G U26C U49C A57G U58C], for which the self-cleavage was found to be 0.05.

As for UAACAGGGGGCCCCAGCAGAAGCGUUCACGUCGCAGCCCCUGUCAGAUUCUGGUGUAUCUGCGAAUUCUGCUGUAUACCUC [A13C A56U U78C], the self-cleavage was found to be 0.75.

Take UAACAGGGGGCCCCAGCUGAAGCGUUCACGUCGCAGCCCCUGUCAGAUUCUGGUGAAUCAGCGAAUUCUGCCGUAUAUCUC [A13C A18U U60A U72C]: the self-cleavage came out at 0.19.

Take UAACAGGGGGCCCCAGCAGAAGCGCUCACGUCGCAGCCCCUACCAGAUUCUGGUGAAUCUGCGAAUUCUGCUGUAUAUCUC [A13C U25C G42A U43C]: the self-cleavage amounted to 0.23.

As to UAACAGGGGGCCCCAGCAGAAGCGUUCACGUCGCGGCCCCUGCCAGAUUCUGGUGAAUCUGCGAAUUCUGCUGUAUAUCUC [A13C A35G U43C], the self-cleavage turned out to be 0.78.

As for UAACAGGGGGCCCCAGCAGAAGCGUCCACGUCGCAGCCCCUGUCAGAUUCUGGUGAAUCUGCGAAUUCUGCCGUAUAUCUC [A13C U26C U72C], the self-cleavage was 0.21.

As to UAACAGGGGGCCCCAGCAGAGGCGCUCACGACGCAGCCCCUGUCAGAUUCUGGUGAAUCUGCGAAUUCUCCUGUAUAUCUC [A13C A21G U25C U31A G70C], the self-cleavage worked out at 0.11.

For the variant UAACAGGGGGCCCCAGCAGAGGCGUUCACGUCGCAGCCCCUGUCAGAUUACGGUGAAUCUGCGAAUUCUGCUGUAUACCUC [A13C A21G C50A U51C U78C], the self-cleavage was determined as 0.48.

For the variant UAACAGGGGGCCCCAGCAGAAGCGUUCUCGUCGCAGCCCCUGUCAGAUUCUGGUGGAUCUGCGAAUUCUGCUGUAUAUCUC [A13C A28U A56G], the self-cleavage was found to be 0.67.

Regarding UAACAGGGGGCCCCAGCAGAAGCGUUCGCGUCGCAGCCCCUGUCAGAUUCUGGUGAAUCUGCAAGUUCAGCUGUAUAUCUC [A13C A28G G63A A65G U69A], the self-cleavage was 0.15.

As to UAACAGGGGGCCCCAGCAGAAGCGUUCACGUCGCAGCCCCUGUCAGAUUCUGGUGAAUCUGCGGAUUCUGCCGUAUUCCUC [A13C A64G U72C A77U U78C], the self-cleavage was determined as 0.56.

Take UAACAGGGGGCCCCAGCAGAAGCGUUCACGUCGCUGCCCCUGUCAGAUCCUGGUGGACCUGCGUAUUCUGCUGUAUAUCUC [A13C A35U U49C A56G U58C A64U]: the self-cleavage stood at 0.17.

In the case of UAACAGGGGGCCCCAGCAGAAGCGUUCACGUCGCAGCCCCUGUCAGAUUCUGGUGGACCUGCGAAUUCUGCGGUAUAUCCC [A13C A56G U58C U72G U80C], the self-cleavage amounted to 0.51.

Consider UAACAGGGGGCCCCAGCAGAAGCGUUCACGUCGCAGCCCCUGCCAGCUUCUGGUGAAUCUGCGAAUUCUGCAGUGUAUCUC [A13C U43C A47C U72A A75G], for which the self-cleavage came to 0.03.

As for UAACAGGGGGCCCCAGCAGAAGCGCUCACGUCGCGGCCACUGUCAGAUUCGGUUGAAUCUGCGAAUUCUGCUGUAUAUCUC [A13C U25C A35G C39A U51G G53U], the self-cleavage was found to be 0.02.

As to UAACAGGGGGCCCCAGCAGAAGCGUUCACGCUGCAGCCCCUGACAGAUUCUGGUGAAUCUGCGGAUUCUGCUGUAUAUCUC [A13C U31C C32U U43A A64G], the self-cleavage was determined as 0.16.

Regarding UAACAGGGGGCCCCAGCUGAAGCGAACACGUCGCAGCCCCUGUCAGACUCUGGUGAAUCCGCGAAUUCUGCUGUAUAUCUC [A13C A18U U25A U26A U48C U60C], the self-cleavage was determined as 0.11.

Regarding UAACAGGGGGCCCCAGCAGAAGCAUUCACGUCGCAGCCCCUGACAGAUUCUGGUGAAUCUGCGAAUUCUGCUGUAUAUCUC [A13C G24A U43A], the self-cleavage was determined as 0.12.

With UAACAGGGGGCCCCAGCACAAGCGUUCACGUCGCAGCCACUGUCAGAUUCUGGUGAAUCUGCGAAUUCUGCUGUAUAUCUC [A13C G19C C39A], the self-cleavage came out at 0.29.

Consider UAACAGGGGGCCCCAGCAGUAGCGUUCACGUCGCAGCCACUGUCAGAUUCUGGUGAAUCUGCGAAUCCUGCUGAAUAUCUC [A13C A20U C39A U67C U74A], for which the self-cleavage was determined as 0.07.

On to UAACAGGGGGCCCCAGCAGAAGCGUUAACGUCGCGGCCCCCGUCAGAUUCUGGUGAAUCUGCGAAUUCUGCUGUAUAUCUC [A13C C27A A35G U41C], for which the self-cleavage came to 0.41.

Consider UAACAGGGGGCCCCAGCAGAAGCGUUCACGUCGCAGCCCCUGUCAGAUUCUGGUGAAUCUGCGGAUUCUGCUGUACAUCUC [A13C A64G U76C], for which the self-cleavage came out at 1.

Turning to UAACAGGGGGCCCCAGCAGUAGCGUUCACGUCGCGGCCCCUGUCAGAUUCUGGUGAAUCUGCGAAUUCUGCUGCAUAUCUC [A13C A20U A35G U74C], the self-cleavage was 0.98.

As to UAACAGGGGGCCCCAGCAGAAGCGUUCACGUUGCGGCCCGUGACAGAUUCUGGCGAACCUGCGAAUUCUGCUGUAUAUCUC [A13C C32U A35G C40G U43A U54C U58C], the self-cleavage is 0.13.

Consider UAACAGGGGGCCCCAGCAGAAGAGUUCACGUCGCAGCCCCUGUCGGAUUCAGGUGGAUCUGCGAAUUCUGCUGUAUAUCUC [A13C C23A A45G U51A A56G], for which the self-cleavage was determined as 0.16.

Turning to UAACAGGGGGCCCCAGCAGAAGCGUUCACGUCGCAGCCCCCGUCAGAUUCGGGUGAAUCUGCGGAUCCUGCUGUAUAUCUC [A13C U41C U51G A64G U67C], the self-cleavage turned out to be 0.23.

Consider UAACAGGGGGCCCCAGCAGAAGCGUUCACGUCGCGGCCCCUGUCUGAUUCUGGUGAAUCUUCGAAUUCUGCUGUAUAUUUC [A13C A35G A45U G61U C79U], for which the self-cleavage was determined as 0.95.

In the case of UAACAGGGGGCCCCAGCAGAAGCGUUCGCGUCGCAGCCCCUGUCUGAUUCUGGUGAAUCUGCGAAUUCUGCUGUAUAUCUC [A13C A28G A45U], the self-cleavage came out at 0.21.

Turning to UAACAGGGGGCCCCAGCAGAAGCGCUCACGUCGCAGCCCCUGUCAGAUUCAGGUGAAUCUGCGAACUCUGCUGUAUAUCUC [A13C U25C U51A U66C], the self-cleavage stood at 0.21.
